About 340 (0.77%) of roughly 44,000 compounds were called active. Another 5% or so got no clear call; they are omitted. Calls follow the shape of the dose curve; as a rule, active = well fitted inhibition curve with a large enough effect; inconclusive = small, poorly fitted or top-dose-only effect; inactive = flat fitted curve, though single readings scatter. This is one part of the list.
Assay: Acumen qHTS Assay for Inhibitors of the mTORC1 Signaling Pathway in MEF (Tsc2-/-, p53-/-) Cells: Sytravon; also: nearly all actives have a fitted effect of over 50% in size;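 as to activity change, negative = inhibition: plate controls were DMSO for no effect and rapamycin for full effect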
Settings: phospho-rpS6 immunofluorescence/PI, 24 h; series mostly up to 38.3 µM; activity change, negative = inhibition: at the top concentration
Method in brief: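 Tsc2-/-, p53-/- MEFs (empty-vector stable line) in DMEM + 10% FBS were treated with compounds 24 h at 37 degree Celsius, fixed, and immunostained for phospho-rpS6 (Alexa-488) with propidium iodide counterstain. Laser-scanning cytometry gave % positive cells, normalized against 7.5 nM rapamycin and DMSO.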
Potency is read from the fitted curve at half-maximal effect.

| Structure (SMILES) | activity change, negative = inhibition | Potency |
| --- | --- | --- |
| CCOc1ccc2nc(NC(=O)c3nc(SCc4ccccc4F)ncc3Cl)sc2c1 | inactive: -0.204% |  |
| Cc1cc(C)cc(-n2c(SCC(=O)Nc3ccccc3)nc3c(oc4ccccc43)c2=O)c1 | inactive: -7.2% |  |
| Cc1ccc(-n2nc3c(=O)n(C(C)C(=O)NCc4ccc(OC(C)C)cc4)nc(C)c3c2C)cc1 (stereo unspecified) | inactive: -12.4% |  |
| CCCCn1c(=O)n(CC2CCC(C(=O)NCCCOC)CC2)c(=O)c2sccc21 (stereo unspecified) | inactive: -2.47% |  |
| COc1cc(OC)cc(-c2nc3nc(C)c(CCC(=O)Nc4cc(C)cc(C)c4)c(C)n3n2)c1 | inactive: -1.54% |  |
| CC(=O)c1ccc(NC(=O)CSC2=Nc3ccccc3N=C(c3ccc(F)cc3)C2)cc1 | inactive: 3.84% |  |
| CC(C)Cn1cc(NC(=O)N2CCN(c3ccc(F)cc3)CC2)c2ccccc2c1=O | inactive: 6.08% |  |
| CCC(Cc1ccccc1)NC(=O)Cn1nc(C)n2c(cc3occc32)c1=O (stereo unspecified) | inactive: -3.04% |  |
| CC(=O)c1cccc(NC(=O)c2sc(-n3nc(C)c(Cc4ccccc4)c3C)nc2C)c1 | inactive: -0.889% |  |
| CCCS(=O)(=O)N1CC(=O)N(c2cccc(Cl)c2)C(C)(C(=O)NC2CCCCC2)C1 (stereo unspecified) | inactive: 1.87% |  |
| Cc1cc(=O)[nH]c2nnc(SCc3ccc(Cl)cc3Cl)n12 | inactive: 2.7% |  |
| Cc1ccc2c(CNC3CCCCC3)c(C(=O)O)n(Cc3ccc(F)cc3)c2c1 | inactive: -0.365% |  |
| COc1cccc(-c2cc(C(=O)NCCc3ccc(OC)c(OC)c3)no2)c1 | inactive: -9.56% |  |
| O=C(Cn1c(SCc2ccc(F)cc2)nc2cccnc21)Nc1ccccc1F | inactive: 0.495% |  |
| Cc1ccc2nc(COc3cccc(NC(=O)Nc4ccc(C)c(Cl)c4)c3)cc(=O)n2c1 | inactive: 2.95% |  |
| COCCNC(=O)c1ccc2c(c1)N(Cc1cc(C)ccc1C)C(=O)c1ccccc1S2=O (stereo unspecified) | inactive: -13.1% |  |
| COc1cccc2cc(-c3nc(-c4ccccc4F)no3)c(=O)oc12 | inactive: 1.34% |  |
| CCOc1ccccc1CNC(=O)c1cc2c(=O)n(Cc3cccnc3)ccc2nc1C | inactive: 0% |  |
| O=C(Nc1ccc(F)c(Cl)c1)c1ccc2c(Cl)c3c(nc2c1)CCCC3 | inactive: -0.0484% |  |
| Cc1ccc(-n2c(SCc3ccccc3F)nc3[nH]ncc3c2=O)cc1Cl | inactive: -7.84% |  |
| CCc1cccc(NC(=O)Cn2c(C(=O)OC)cc3sc(Cl)cc32)c1 | inactive: -13% |  |
| O=C(NCc1ccccc1)C1CCN(S(=O)(=O)Cc2ccccc2)CC1 | inactive: 3.59% |  |
| CCN(CC)CCNC(=O)C1CCN(C(=O)c2cnn(-c3ccccc3)c2-n2cccc2)CC1 | inactive: -3.39% |  |
| Cc1ccc(NC(=O)CSc2nc(=O)cc(N)n2-c2ccccc2)cc1 | inactive: 6.36% |  |

| Structure (SMILES) | activity change, negative = inhibition | Potency |
| --- | --- | --- |
| CCOC(=O)N1CCc2c(sc3c2C(=O)NC(c2ccc(N(C)C)cc2)N3)C1 (stereo unspecified) | inactive: -0.346% |  |
| Cc1ccc2nc(NC(=O)CSc3[nH]c(=O)ncc3C)sc2c1 | inactive: -7.45% |  |
| CCCCOc1ccc(C2c3c(oc4ccc(C)cc4c3=O)C(=O)N2CCCN(C)C)cc1OCC (stereo unspecified) | inactive: -7.97% |  |
| CC(=O)NCCNC(=O)CCCn1c(=O)[nH]c2ccsc2c1=O | inactive: -2.27% |  |
| CCN(CC)S(=O)(=O)c1cccc(C(=O)Nc2ccccc2C(=O)Nc2ccc(Cl)cc2)c1 | inactive: 0.214% |  |
| Cc1ccc(C)c(NS(=O)(=O)c2cc3c(cc2C)n(C)c(=O)c(=O)n3C)c1 | inactive: -1.76% |  |
| Cc1ccc(-n2c(/C=C/c3c(C)n(C)c4ccccc34)nc3ccccc3c2=O)cc1 | inactive: 4.39% |  |
| CCOC(=O)c1c(NC(=O)Cc2coc3cc(C)cc(C)c23)sc2c1CCC2 | inactive: -0.655% |  |
| COCCN(CCOC)S(=O)(=O)c1ccc(C(=O)Nc2sc3c(c2C(=O)OC)CCN(C)C3)cc1 | inactive: -11.7% |  |
| CC(=O)c1ccc(NC(=O)c2cc(C)nn2-c2ccccc2)cc1 | inactive: -0.015% |  |
| CCCCN(CCCNC(=O)c1cc(Nc2cccc(SC)c2)nc2ccccc12)Cc1ccccc1 |  | active: 16.5 µM |
| CCOc1cccc(C(=O)Nc2ccc(-c3nc4ncccc4o3)cc2C)c1 | inactive: 7.93% |  |
| Cc1ccc(NC(=O)c2cc(S(=O)(=O)N3CCC4(CC3)OCCO4)ccc2F)cc1Cl | inactive: -0.201% |  |
| COC(=O)c1c(NC(C)=O)c2c3c(sc2n1Cc1cc(C)ccc1C)CCCC3 | inactive: -3.99% |  |
| CCOC(=O)c1ccccc1NC(=O)c1sc2nc3n(c(=O)c2c1C)CCCCC3 | inactive: -6.9% |  |
| CN(C)S(=O)(=O)N(CC(=O)NCCSCc1c(F)cccc1Cl)c1ccccc1 | inactive: -6.26% |  |
| O=c1[nH]c(SCc2c(F)cccc2Cl)nc2c1CCC2 | inactive: 0.17% |  |
| Cc1cccc(-n2c(C)cc(C(=O)C(=O)Nc3ccccc3F)c2C)c1C | inactive: 1.12% |  |
| Cc1ccc(S(=O)(=O)N2CCC(N3CCN(Cc4ccccc4)C(=O)C3=O)CC2)cc1C | inactive: 1.12% |  |
| Cc1ccc(S(=O)(=O)CC(=O)Nc2nc3c(C)cc(C)cc3s2)cc1 | inactive: 1.07% |  |
| Cc1cccc(C(=O)Nc2nnc(S(=O)(=O)N(C)Cc3ccccc3)s2)c1 | inactive: 7.06% |  |
| COc1ccc(C(=O)c2oc3ccccc3c2NC(=O)c2cc(=O)c3ccc(C)cc3o2)cc1Cl | inactive: 3.35% |  |
| COc1ccc(-c2noc(CNC(=O)c3ccccc3Br)n2)cc1 | inactive: 0.711% |  |
| CCOc1ccc(-c2cccc(NS(=O)(=O)c3ccc(F)cc3F)c2)nn1 | inactive: 6.93% |  |

| Structure (SMILES) | activity change, negative = inhibition | Potency |
| --- | --- | --- |
| COc1cccc(NC(=O)c2cccc3c(=O)c4c([nH]c23)CCCC4)c1 | inactive: -8.77% |  |
| CCCOc1ccc(C2c3c(-c4ccccc4O)n[nH]c3C(=O)N2CCc2ccccc2)cc1OCC (stereo unspecified) | inactive: 3.81% |  |
| CCOc1ccc2ncc3c(-c4ccc(C)cc4)nn(-c4cccc(F)c4)c3c2c1 | inactive: 3.2% |  |
| CCOc1ccc(OCC)c(NC(=O)c2cc(S(=O)(=O)N3CCc4ccccc43)cn2C)c1 | inactive: 1.21% |  |
| Cc1ccc(S(=O)(=O)NCC(c2ccco2)N2CCOCC2)cc1 (stereo unspecified) | inactive: 6.33% |  |
| COc1ccc(-c2nc3c(c(SCC(=O)N4CCCCC4)n2)Cc2cc(C)ccc2O3)cc1 | inactive: -13.7% |  |
| O=S(=O)(c1cccc(Cl)c1)c1nnn2c1nc(NCc1ccc3c(c1)OCO3)c1sccc12 | inactive: -2.24% |  |
| CCOC(=O)CSc1nc(-c2ccc(OCC)cc2)cc(C(F)(F)F)c1C#N | inactive: 5.35% |  |
| CC(=O)Nc1ccc(/C=C/c2noc(-c3ccccc3O)n2)cc1 | inactive: -0.23% |  |
| CCc1nnc(NC(=O)c2cc(=O)c3cc(C)ccc3o2)s1 | inactive: 0.862% |  |
| COc1ccccc1CNC(=O)C(=O)NCC(c1cccs1)S(=O)(=O)c1ccccc1 (stereo unspecified) | inactive: 0.0771% |  |
| CC(=O)c1ccc(N2CCN(S(=O)(=O)c3cc4[nH]c(=O)c(=O)[nH]c4cc3C)CC2)cc1 | inactive: 4.92% |  |
| Cc1ccc(C)c(N2CCN(C(=O)Cn3cnc4onc(-c5ccc(F)cc5)c4c3=O)CC2)c1 | inactive: 7.9% |  |
| Cc1ccc2oc(=O)c3cc(C(=O)NCCCOC(C)C)sc3c2c1 | inactive: -6.98% |  |
| COc1ccc(-n2c(SCC(=O)NCc3ccc(Cl)cc3)nc3ccsc3c2=O)cc1 | inactive: -6.28% |  |
| Cc1ccc(NC(=O)CCCc2nc(-c3ccco3)no2)cc1Cl | inactive: 0.381% |  |
| COc1ccc(-n2nnnc2C2CCN(S(=O)(=O)c3cccc(C(F)(F)F)c3)CC2)cc1 | inactive: 2.07% |  |
| COc1cccc(NC(=O)C(Cc2ccccc2)N2Cc3ccccc3C2=O)c1 (stereo unspecified) | inactive: 0.396% |  |
| COc1ccc(NS(=O)(=O)c2ccc(N3CCCCS3(=O)=O)cc2)cc1Cl | inactive: -10.1% |  |
| COc1ccc(-c2noc(CCC(=O)N(C)c3cc(Cl)ccc3OC)n2)cc1 | inactive: 0.198% |  |
| CC(C)CCOc1ccc(C(=O)NCC2OCCc3ccccc32)cc1 (stereo unspecified) | inactive: -0.659% |  |
| COc1cccc(-n2c(=O)c3cc(OC)c(OC)cc3n(CC(=O)Nc3ccc(F)cc3)c2=O)c1 | inactive: -12.6% |  |
| CCS(=O)(=O)N1CCCc2cc(C(=O)Nc3cccc(C(C)=O)c3)ccc21 | inactive: 2.39% |  |
| COc1cc(NC(=O)c2cccc(Cl)c2Cl)ccc1NC(=O)c1cc2ccccc2o1 | inactive: 7.68% |  |

| Structure (SMILES) | activity change, negative = inhibition | Potency |
| --- | --- | --- |
| CCCn1c2ccc(F)cc2c2nnc(SCCN3CCCCC3)nc21 | inactive: 0.0362% |  |
| CCC(=O)N1CCc2cc(Br)cc(S(=O)(=O)CCC(=O)Nc3cccc(Cl)c3)c21 | inactive: -6.48% |  |
| CCCc1cnc2c(c1SCC(=O)Nc1ccccc1OCC)c(=O)n(C)c(=O)n2C | inactive: -0.507% |  |
| Clc1ccc(-c2nnn3c2nc(NC2CCCCC2)c2ccccc23)cc1 | inactive: -6.72% |  |
| CCOc1ccc(Nc2ncnc3c2c(-c2ccccc2)cn3-c2cccc(C)c2)cc1 | inactive: -22.1% |  |
| CCOc1ccc(C(=O)N(Cc2ccc(C(C)C)cc2)Cc2ccco2)cc1 | inactive: -22.9% |  |
| Cc1cc2c(cc1NS(=O)(=O)c1ccc(Br)cc1)n(C)c(=O)c(=O)n2C | inactive: 1.9% |  |
| COc1cccc(Cn2nc(SC)c(S(=O)(=O)c3ccccc3)c2N(C(C)=O)C(C)=O)c1 | inactive: -0.934% |  |
| CCCSCCCNC(=O)c1ccc(C)c(NC(=O)c2nsc3ccccc23)c1 | inactive: -7.39% |  |
| COc1ccc(CC(=O)N2CCc3cc(OC)c(OC)cc3C2COc2ccc(F)cc2)cc1 (stereo unspecified) | inactive: 3.43% |  |
| COc1ccc(OC)c(NC(=O)c2oc(=O)c3ccccc3c2-c2ccccc2)c1 | inactive: 1.48% |  |
| COc1cc2c(cc1OC)C(c1cccc(Cl)c1)CC(=O)N2 (stereo unspecified) | inactive: 0.738% |  |
| COc1ccc(N2CCN(S(=O)(=O)c3ccc(F)c(C(=O)Nc4ccccc4Cl)c3)CC2)cc1 | inactive: 2.38% |  |
| Cn1nc(-c2ccccc2F)c2cc(C(=O)NCc3ccccc3Cl)sc21 | inactive: -9.91% |  |
| CCOc1ccc(NCc2cccn2-c2nnc(N3CCC(C(=O)NCc4ccccc4Cl)CC3)s2)cc1 | inactive: -0.841% |  |
| CCc1ccc(OCCSc2nc3ccccc3n2CC(=O)N2CCCCC2)cc1 | inactive: 2.37% |  |
| O=C(c1ccc(F)cc1)N1CCc2c([nH]c3ccccc23)C1c1ccc(Cl)cc1 (stereo unspecified) | inactive: -8.22% |  |
| COc1ccc(Cl)cc1NC(=O)N1CCN(S(=O)(=O)c2ccc3c(ccn3C)c2)CC1 | inactive: -1.5% |  |
| CC(C)(C)OC(=O)N1CCC(c2c(C(=O)NCc3cccs3)cnn2-c2cccc(F)c2)CC1 | inactive: -14.6% |  |
| COc1ccccc1N1CCN(c2ncnc3c2c(-c2ccccc2)cn3-c2cccc(Cl)c2)CC1 | inactive: 5.28% |  |
| Cc1ccc(OCCSc2nc(-c3ccccc3C)nc3cc(=O)[nH]n23)cc1Cl | inactive: -2.18% |  |
| Cc1nn(-c2nc(-c3ccccc3)cc(C(F)(F)F)n2)c(C)c1Cl | inactive: 0.0123% |  |
| CCc1nn(C(CC)C(=O)NCc2ccc(OC)c(OC)c2)c(=O)c2cc3oc(C)cc3n12 (stereo unspecified) | inactive: -1.49% |  |
| CCCCNC(=O)c1cccc(NC(=O)c2nsc3ccccc23)c1 | inactive: 7.36% |  |
